# US9144239B2, “Macrocyclic picolinamides as fungicides” (DOW AGROSCIENCES LLC, priority 2012, dated 2015)
# Tested on: Magnaporthe grisea; anamorph: Pyricularia oryzae
# Format: in vivo
# Set-up: key: A: 80-100; B: More than 0-Less than 80; C: Not Tested; D: No activity noticed in this bioassay
# Settings: 100 ppm; 1 Day Protectant; rice
structure (smiles),measurement,value
COc1ccnc(C(=O)N[C@H]2COC[C@H](OC)[C@@H](OC)[C@H](C)OC2=O)c1OCOC(C)=O [Compound 65],Disease Control PYRIOR 1 DP,D
